The list shows a part of the results. At the low end of the ranking the order means little.

The assay addresses MAX:MAX (p21) (UniProt P61244-2). Nature of the assay: protein-binding microarray (anti-MAX antibody). The following applies: PBM: 15 mM Tris-HCl pH 7.5, 100 mM KCl, 0.075% NP40, 7.5 mM beta-mercaptoethanol, 375 ng/ul BSA, 8 ng/ul poly(dA-dT):(dA-dT), 550 ng complex, 60 min, room …; high values mean tight binding; double strand, one strand shown; sequences stand for … in CCGGC…TTAATAGCTAAGATTACTATATCGACG
Regarding TACTATGCCATG, the binding signal (log2 normalized fluorescence) stood at 0.457.

TGACCAGGGGTA gave a binding signal (log2 normalized fluorescence) of 0.376.

Consider TGATATGATGTA, for which the binding signal (log2 normalized fluorescence) is -0.575.

Regarding TGACAGACAGTA, the binding signal (log2 normalized fluorescence) was -0.222.

TGATTAATGGTA displayed a binding signal (log2 normalized fluorescence) of -0.668.

In the case of TTACACATGATA, the binding signal (log2 normalized fluorescence) turned out to be 3.07.

For TGAAAGTTCGTA, the binding signal (log2 normalized fluorescence) was -0.908.

TGACTGCGTGTA returned a binding signal (log2 normalized fluorescence) of 1.44.

Consider TGACTAAATGTA, for which the binding signal (log2 normalized fluorescence) is -0.623.

The sequence TGATGACTTGTA yielded a binding signal (log2 normalized fluorescence) of -0.0419.

As for TGACTTGCGGTA, the binding signal (log2 normalized fluorescence) stood at 0.467.

TGACAATGGGTA gave a binding signal (log2 normalized fluorescence) of 0.0164.

Sequence TGAACTGCGGTA returned a binding signal (log2 normalized fluorescence) of -0.566.

For the sequence TGACAGCTGGTA, the binding signal (log2 normalized fluorescence) turned out to be 1.07.

For TGATCTGCAGTA, the binding signal (log2 normalized fluorescence) is -0.379.

Regarding TGACTGAGCGTA, the binding signal (log2 normalized fluorescence) is -0.505.

TGATTCTATGTA showed a binding signal (log2 normalized fluorescence) of -1.1.

TGATCTCGTGTA came in with a binding signal (log2 normalized fluorescence) of 2.34.

Take TGATGTATAGTA: the binding signal (log2 normalized fluorescence) was determined as 0.0267.

TGAGGCCGGGTA returned a binding signal (log2 normalized fluorescence) of -0.931.

Turning to TGACGTACGGTA, the binding signal (log2 normalized fluorescence) is -0.179.

In turn, TGATGGCTAGTA registered a binding signal (log2 normalized fluorescence) of -0.159.

TGATTATGTGTA yielded a binding signal (log2 normalized fluorescence) of -0.483.

TGGCACGTGGTG had a binding signal (log2 normalized fluorescence) of 3.4.

As to TGATAATTCGTA, the binding signal (log2 normalized fluorescence) was -1.14.

The sequence CGTCACGTGGTT had a binding signal (log2 normalized fluorescence) of 3.22.

As for TGACCTCAGGTA, the binding signal (log2 normalized fluorescence) was -0.119.

With TGAAATTAGGTA, the binding signal (log2 normalized fluorescence) was -1.08.

The sequence TGATGATGCGTA showed a binding signal (log2 normalized fluorescence) of -0.181.

TGAGGGGGAGTA showed a binding signal (log2 normalized fluorescence) of 1.48.

For TGAAGTACCGTA, the binding signal (log2 normalized fluorescence) was -0.581.

In turn, TGAACTACGGTA gave a binding signal (log2 normalized fluorescence) of -0.733.

TGAGACCTGCTA registered a binding signal (log2 normalized fluorescence) of -0.292.

Sequence TGAATCTATGTA returned a binding signal (log2 normalized fluorescence) of -0.843.

TGACAAGCTGTA registered a binding signal (log2 normalized fluorescence) of 0.0955.

Regarding TGAGACGGGGTC, the binding signal (log2 normalized fluorescence) was -0.246.

The sequence TGAGCCCTGGTA registered a binding signal (log2 normalized fluorescence) of -0.767.

TGATACGTGGTC: the binding signal (log2 normalized fluorescence) came out at 1.41.

Consider TGAACAATGGTA, for which the binding signal (log2 normalized fluorescence) is -0.315.

TGAAAAGATGTA came in with a binding signal (log2 normalized fluorescence) of -0.461.

Regarding TGAATGCGAGTA, the binding signal (log2 normalized fluorescence) came out at 0.25.

TGAGAAGAGGTA yielded a binding signal (log2 normalized fluorescence) of -0.834.

For the sequence TTGGTGTACACT, the binding signal (log2 normalized fluorescence) was -0.194.

The sequence TGACGACGTGTA registered a binding signal (log2 normalized fluorescence) of 1.17.

TGATAAACCGTA gave a binding signal (log2 normalized fluorescence) of -0.493.

Regarding TGATTAGCGGTA, the binding signal (log2 normalized fluorescence) is -1.14.

For the sequence TGAACGTCGGTA, the binding signal (log2 normalized fluorescence) was -0.0408.

TGTCACGTGGTA returned a binding signal (log2 normalized fluorescence) of 3.12.

Sequence TGAAGAATGGTA gave a binding signal (log2 normalized fluorescence) of 0.22.

In turn, TGAGGCCCTGTA yielded a binding signal (log2 normalized fluorescence) of -0.901.

On to CGACACGTGCTT, for which the binding signal (log2 normalized fluorescence) is 3.21.

For the sequence TGACTCGTTGAA, the binding signal (log2 normalized fluorescence) amounted to 0.115.

Turning to AGACACGTGATA, the binding signal (log2 normalized fluorescence) is 3.29.

For TGAGACCGTGTA, the binding signal (log2 normalized fluorescence) is 0.319.

Sequence TGAACACGAGTA gave a binding signal (log2 normalized fluorescence) of 2.73.

On to TGACTACTGGTA, for which the binding signal (log2 normalized fluorescence) is -0.334.

On to TGACACGATCTA, for which the binding signal (log2 normalized fluorescence) was 1.3.

Consider TGATATCAGGTA, for which the binding signal (log2 normalized fluorescence) is -0.338.

Turning to TGATAACTAGTA, the binding signal (log2 normalized fluorescence) was -1.04.

The sequence TGAACTGAGGTA returned a binding signal (log2 normalized fluorescence) of -0.682.

The sequence TGATTGCGAGTA had a binding signal (log2 normalized fluorescence) of -0.512.

The sequence TGAATATGTGTA yielded a binding signal (log2 normalized fluorescence) of -0.181.

TGAGAGTAGGTA came in with a binding signal (log2 normalized fluorescence) of -0.927.

TGAATGGTGGTA had a binding signal (log2 normalized fluorescence) of 0.478.

Turning to TGAGGGGCGGTA, the binding signal (log2 normalized fluorescence) was 1.1.

Sequence TGAGTAAGTGTA displayed a binding signal (log2 normalized fluorescence) of -0.841.

Take AAGGACGTGGTT: the binding signal (log2 normalized fluorescence) is 2.11.

The sequence TGATCGGAGGTA registered a binding signal (log2 normalized fluorescence) of -0.909.

Regarding TGAATATGGGTA, the binding signal (log2 normalized fluorescence) is -0.371.

On to TGACACACGTTA, for which the binding signal (log2 normalized fluorescence) was 2.37.

With TATAACGTGGTA, the binding signal (log2 normalized fluorescence) is 2.9.

With TGAAGCCTAGTA, the binding signal (log2 normalized fluorescence) is -1.12.

TAATACGTGGTA gave a binding signal (log2 normalized fluorescence) of 1.49.

As to TGACACGTTGCG, the binding signal (log2 normalized fluorescence) is 3.23.

As for TGACACGTGCAA, the binding signal (log2 normalized fluorescence) was determined as 3.47.

TGAACCCAGGTA yielded a binding signal (log2 normalized fluorescence) of -0.34.

Take TGATCCGCCGTA: the binding signal (log2 normalized fluorescence) was -1.04.

Regarding TGACGGAGGGTA, the binding signal (log2 normalized fluorescence) is -0.496.

For TGAAGAAGAGTA, the binding signal (log2 normalized fluorescence) was -1.08.

Turning to TGAGATCTAGTA, the binding signal (log2 normalized fluorescence) is -1.23.

Sequence TGACACGTCTCA had a binding signal (log2 normalized fluorescence) of 1.5.

In turn, TGATACGTGATA yielded a binding signal (log2 normalized fluorescence) of 0.465.

In turn, TGATGACTGGTA came in with a binding signal (log2 normalized fluorescence) of -0.0453.

As for TGAACCATGGTA, the binding signal (log2 normalized fluorescence) was 1.06.

Take TGAGCCTAGGTA: the binding signal (log2 normalized fluorescence) is -1.22.

TGATTTAAAGTA displayed a binding signal (log2 normalized fluorescence) of -1.2.

With TGATAGACCGTA, the binding signal (log2 normalized fluorescence) is -1.06.

For the sequence TGACGCTGAGTA, the binding signal (log2 normalized fluorescence) is -0.349.

Consider TGACTGGAGGTA, for which the binding signal (log2 normalized fluorescence) is -0.145.

As for TGATTGAGCGTA, the binding signal (log2 normalized fluorescence) was -1.01.

TGACCTGGCGTA returned a binding signal (log2 normalized fluorescence) of -0.143.

TGAACCTCCGTA yielded a binding signal (log2 normalized fluorescence) of -0.39.

Take TGACTACCCGTA: the binding signal (log2 normalized fluorescence) is -0.356.

Consider GGACACGGGGTT, for which the binding signal (log2 normalized fluorescence) came out at 3.1.

In the case of TGAGAAGCAGTA, the binding signal (log2 normalized fluorescence) is -0.962.

TGACGAGACGTA showed a binding signal (log2 normalized fluorescence) of -0.279.

For TGAGACGGCGTA, the binding signal (log2 normalized fluorescence) was -0.682.

TGAAACACTGTA came in with a binding signal (log2 normalized fluorescence) of -0.0628.

Take TGTTTCGTGGTA: the binding signal (log2 normalized fluorescence) was -0.286.

Sequence TGATCATTTGTA returned a binding signal (log2 normalized fluorescence) of -0.488.

For the sequence TGAGAGGGGGTA, the binding signal (log2 normalized fluorescence) came to 1.39.

TGAAGCTAGGTA showed a binding signal (log2 normalized fluorescence) of -0.891.

As for TGAACGAGTGTA, the binding signal (log2 normalized fluorescence) was determined as 0.122.

Take TGACACCTAGTA: the binding signal (log2 normalized fluorescence) was -0.239.

With TGAATTAGTGTA, the binding signal (log2 normalized fluorescence) was -0.804.

The sequence TGAGGCGCCGTA showed a binding signal (log2 normalized fluorescence) of -0.102.

In turn, TGATCAGCCGTA had a binding signal (log2 normalized fluorescence) of -0.569.

The sequence TGACGCCACGTA registered a binding signal (log2 normalized fluorescence) of 0.637.

TGACACGTGTCT had a binding signal (log2 normalized fluorescence) of 3.41.

Sequence TGAACGGAGGTA returned a binding signal (log2 normalized fluorescence) of -0.465.

Take CGACACGGGGTC: the binding signal (log2 normalized fluorescence) worked out at 2.95.

Consider TGATAAAGCGTA, for which the binding signal (log2 normalized fluorescence) is -0.982.

TGGGACGTGGTA gave a binding signal (log2 normalized fluorescence) of 1.54.

Sequence TGATGGACCGTA showed a binding signal (log2 normalized fluorescence) of -0.043.

TGAGAATCAGTA: the binding signal (log2 normalized fluorescence) was -1.25.

For TGAGGTGGTGTA, the binding signal (log2 normalized fluorescence) was -0.0636.

On to TGACAAATCGTA, for which the binding signal (log2 normalized fluorescence) is -0.658.

In the case of TGATACCTTGTA, the binding signal (log2 normalized fluorescence) was -0.803.

In turn, TGAAGCCCCGTA registered a binding signal (log2 normalized fluorescence) of -0.692.

TGAGGTCGGGTA showed a binding signal (log2 normalized fluorescence) of -0.921.

GCAAACGTGGTA returned a binding signal (log2 normalized fluorescence) of 2.98.

The sequence TGAAGCGGAGTA had a binding signal (log2 normalized fluorescence) of -1.01.

For the sequence TGACGAGGTGTA, the binding signal (log2 normalized fluorescence) was found to be 0.156.

Sequence TGAGCACGGGTA returned a binding signal (log2 normalized fluorescence) of 1.71.

TGACTGAATGTA registered a binding signal (log2 normalized fluorescence) of -0.252.

Turning to TGAGATAGTGTA, the binding signal (log2 normalized fluorescence) was -1.02.

On to TTGGACGTGGTA, for which the binding signal (log2 normalized fluorescence) worked out at 0.937.

For the sequence TGAAGATACGTA, the binding signal (log2 normalized fluorescence) was -0.921.

In turn, TGACCCCGGGTA displayed a binding signal (log2 normalized fluorescence) of -0.234.

TGGCACGCGGTA: the binding signal (log2 normalized fluorescence) amounted to 3.02.

Take AGACACGATGTA: the binding signal (log2 normalized fluorescence) was 3.02.

As for TGAATGGGGGTA, the binding signal (log2 normalized fluorescence) was determined as 1.64.

Sequence TGACACGGTTTA yielded a binding signal (log2 normalized fluorescence) of 1.12.

For the sequence TGAAGACCTGTA, the binding signal (log2 normalized fluorescence) was -0.291.

Take TTACACGTGTTA: the binding signal (log2 normalized fluorescence) was 3.4.

The sequence TGAACTCGTGTA registered a binding signal (log2 normalized fluorescence) of 2.66.

TGATTGCCCGTA gave a binding signal (log2 normalized fluorescence) of -0.642.

For TGAATGGTAGTA, the binding signal (log2 normalized fluorescence) was 0.411.

The record behind these values is paper PMC5515408.
